# Assay results: PubChem BioAssay AID2202238 (Ras Initiative Chemistry Research Team, Frederick National …, 2025)
# This is one part of the list. Shown are side measurements of this screen, not its main read-out; they come without a call.
# Target: GTPase KRas (Homo sapiens) (UniProt P01116)
# Assay: Cysteine mutants labelled by reactive fragments (mass read-out) (AID 2202238)
# Design: protein at 5 µM with 500 µM competing thiol for 1.5 h
# Conditions: KRAS G12D cysteine mutants, disulfide tethering, MALDI-TOF labeling, stronger effect = higher value, fragment at 500 µM
# [1] = measured here: G60C mutant labeling
# [2] = measured here: G75C mutant labeling
# [3] = measured here: H94C mutant labeling
# [4] = measured here: I36C mutant labeling
# [5] = measured here: L120C mutant labeling
# [6] = measured here: M67C mutant labeling
# [7] = measured here: M72C mutant labeling
# [8] = measured here: N26C mutant labeling
# [9] = measured here: N86C mutant labeling
# [10] = measured here: P121C mutant labeling
# [11] = measured here: S122C mutant labeling
# [12] = measured here: S136C mutant labeling
# Sequence of UniProt P01116 (P01116 whole entry, looked up, the tested form may be a part): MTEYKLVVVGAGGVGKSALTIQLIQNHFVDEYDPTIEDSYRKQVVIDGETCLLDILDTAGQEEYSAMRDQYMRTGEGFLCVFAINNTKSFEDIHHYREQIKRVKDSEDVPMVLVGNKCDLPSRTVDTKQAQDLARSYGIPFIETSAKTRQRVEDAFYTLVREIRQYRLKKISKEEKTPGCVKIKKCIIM
Compound,percent labeling [1] [%],percent labeling [2] [%],percent labeling [3] [%],percent labeling [4] [%],percent labeling [5] [%],percent labeling [6] [%],percent labeling [7] [%],percent labeling [8] [%],percent labeling [9] [%],percent labeling [10] [%],percent labeling [11] [%],percent labeling [12] [%]
O=C(NCCS)C1(Cc2cccc(Cl)c2)CCCCC1,30.9,14.2,15.3,10.5,12.7,11.4,31.5,27.5,8.2,13.6,8.3,20.9
COCCn1cc(C#N)c(NC(=O)CCS)n1,,9.5,22.1,36.2,38,26.6,17.7,,27.7,32.9,33.2,42.6
Cc1nn(-c2ccccc2)c2ncc(C(=O)NCCS)cc12,21.2,9.5,14.4,10.4,12.2,10.7,20.1,25.1,11.4,11.1,7,17.6
O=C(CCS)N1CCCc2c(F)cc(F)cc21,,26.7,41.2,21.9,15.3,21.6,62.6,,23,24.7,18,41.1
O=C(CCS)NC1COc2ccccc2C1O (stereo not drawn),,12,25.9,36.7,28.3,33.9,20.4,,17.4,29.5,33.6,51.3
O=C(NCCS)c1ccc2c(c1)CCCN2C(=O)c1ccccc1,22.1,9.1,12.5,12.7,10,13.8,20.3,29.2,6.1,8.7,6.2,23.9
Cc1c(C(=O)NCCS)c(=O)oc2ccc(O)cc12,42,15.8,26.8,30.4,39.1,39,45.1,50.4,40.6,51.1,29.9,50.2
CC(C)(NC(=O)c1ccccc1)C(=O)NCCS,21.7,6.5,26.5,16.6,51.5,24,18.8,27.7,21.1,27,25.3,42.6
CC(C)(C(=O)NCCS)c1csc(-c2cccs2)n1,37,20.3,27.6,15.8,26.1,21.3,37.6,33.4,15.7,19.6,15.9,25.7
O=C(NCCS)c1cc2c(Cl)cncc2s1,22.1,13,14.6,11,13.4,12.3,40.2,29.4,10.5,11.2,8.9,19.5
O=C(CCS)Nc1ccc(OCc2cccc(F)c2)c(F)c1,,7,12.4,35.5,7,30.7,34.6,,9.8,7.8,0,21.8
O=C(NCCS)c1cnn(Cc2ccccc2Cl)c1,40.8,23.8,21.1,20.5,31.1,58.3,50.6,34.5,19.7,19.8,18.6,35
O=C(NCCS)C1CCN(S(=O)(=O)c2cccnc2)CC1,35.3,19.9,33.6,32.6,31.8,36.9,18.3,43.1,28.4,31.7,33.9,39.7
O=C(CCS)NCc1cc(-c2ccc3c(c2)OCCO3)on1,,4.8,14,21.4,10.4,15.3,55.5,,7.9,12.2,10.1,18.8
O=C(NCCS)c1cc(Br)c2nccnc2c1,46.2,23.7,25.8,18.8,21.2,23.6,61.5,35.9,17.9,17.9,14.3,28.7
COc1ccc2c(c1)C(CCNC(=O)CCS)=CC2,,12.4,20.3,23.4,24.9,21.5,24.4,,19.9,12.1,17.6,22.3
O=C(NCCS)c1ccc(Cn2cccn2)cc1,29.2,17.3,31.7,35.9,41.2,33.1,35.7,39.3,28.9,29.7,14.8,53.7
O=C(CCS)Nc1ccc(-n2cncn2)nc1,,24.5,18.6,32,18.5,23.1,33.5,,17.5,28.1,25.2,32.2
Cc1cc2scc(CC(=O)NCCS)c2s1,34.7,16,19.7,12.5,22.8,13.6,38.7,26.8,14.8,16.1,14.1,22.7
COC(=O)c1ccc2[nH]cc(C3CCN(C(=O)CCS)CC3)c2c1,,5.6,12.3,8,6.9,12.3,21,,6.5,12.3,6.2,22
O=C(CCS)NCc1cnn(-c2ccccc2)c1,,11.2,16.9,27,17.7,38.2,31.7,,8.1,27.8,19.1,36.2
O=C(NCCS)c1csc(CCc2ccccc2)n1,22.5,10.8,18.3,10.6,18.1,17.8,34.8,28.9,14.3,15.8,12.5,21.2
CC(C(=O)NCCS)n1ccnc1-c1ccccc1 (stereo not drawn),36.4,14.4,33.3,26.8,30.5,45.9,24.7,36.5,28.4,29.4,31.2,46
